The whole screen tested about 350,000 compounds, of which about 9,900 (2.8%) were called active. The shares of active, inactive and inconclusive entries below differ from those in the screen. Calls come from the whole dose curve; as a rule, active = well fitted activation curve with a large enough effect; inconclusive = small, poorly fitted or top-dose-only effect; inactive = no such curve, though single readings can be large or run the other way. Potencies of inconclusive entries are left out as doubtful fits.
Assay: A quantitative high throughput screen for small molecules that induce DNA re-replication in MCF 10a normal breast cells. Note: nearly all actives have a fitted effect of over 50% in size.
Details: MCF 10A DNA re-replication, Hoechst nuclear intensity, 48 h; series mostly up to 46.1 µM
Potency is the fitted concentration of half-maximal effect; tags give direction and shape of the fitted curve.

| Structure (SMILES) | Potency |
| --- | --- |
| N/C(=N\OC(=O)c1cc(-c2ccccc2)nc2ccccc12)c1cccnc1 | inactive |
| O=S(=O)(c1ccccc1)c1cnc(-c2ccccc2)nc1N1CCCCC1 | inconclusive [activator, partial curve, poor fit] |
| Cc1nn(-c2ccccc2)c2c1C1(C(=O)N(C)c3ccccc31)N(c1ccccc1)C(=O)N2 (centres undefined) | inactive |
| CNC(=O)N(C1=NCC(C)(C)S1)c1ccc(F)c(Cl)c1 | inconclusive [activator, single point] |
| N#Cc1c(NC(=O)CSc2ncn[nH]2)sc2c1CCCC2 | inconclusive [activator, single point] |
| OCC1CCCN(C(=S)Nc2ccc(Nc3ccccc3)cc2)C1 (centres undefined) | inconclusive [activator, full curve, poor fit] |
| CN(C)C(=O)c1ccc2c(c1[N+](=O)[O-])C(=O)c1ccccc1C2=O | inconclusive [activator, single point] |
| Cc1ccc(-n2ncc3c(NNC(=O)c4ccco4)ncnc32)cc1Cl | inconclusive [activator, partial curve, poor fit] |
| COc1cc(C(=O)NCC(=O)OCn2nnc3ccccc3c2=O)cc(OC)c1OC | inconclusive [activator, partial curve, poor fit] |
| CC1=C(C(=O)Nc2cccc(C(=O)N3CCC(C(N)=O)CC3)c2)SCCO1 | inactive |
| O=C(O)c1ccccc1SCc1cn2ccccc2n1 | inconclusive [activator, partial curve, poor fit] |
| NS(=O)(=O)c1ccc(CCNC(c2ccccc2)c2ccccc2)cc1 | inconclusive [activator, full curve, poor fit] |
| Cc1ccc(NC(=O)c2nc[nH]c2C(=O)N[C@@H](C)C(=O)OC(C)(C)C)cc1 | inconclusive [activator, partial curve, poor fit] |
| O=C1N/C(=N/S(=O)(=O)Cc2ccccc2)S/C1=C/c1ccc2c(c1)OCO2 | inconclusive [activator, single point] |
| CN(CC(=O)Nc1ccc(Cl)c(Cl)c1)CC(=O)Nc1ccc2c(c1)OCO2 | inconclusive [activator, single point] |
| O=C(Nc1ccccc1)/C(=C/c1ccc([N+](=O)[O-])cc1)NC(=O)c1ccccc1 | inactive |
| Clc1nc(NC2CCCC2)nc(N2CCOCC2)n1 | inconclusive [activator, partial curve, poor fit] |
| Cc1cccc(CSCCNC(=O)CSCc2ccc([N+](=O)[O-])cc2)c1 | inconclusive [activator, single point] |
| COc1ccc(-c2csc(NC(=O)CSc3nnc(Nc4ccccc4C)s3)n2)cc1 | inconclusive [activator, partial curve, poor fit] |
| Cc1ncc(S(=O)(=O)c2ccccc2)c(-c2ccccc2)n1 | inactive |
| O=C(C1CC1)N1CCN(c2ccc([N+](=O)[O-])cc2-n2cccc2)CC1 | inconclusive [activator, single point] |
| COC(=O)Cn1c(CN2CCN(c3ccc(F)cc3)CC2)nc2c1c(=O)n(C)c(=O)n2C | inactive |
| Cc1cnc(C(=O)Nc2ccc(F)cc2)cn1 | inactive |
| O=C(NCCCN1CCOCC1)c1ccc(Cl)c([N+](=O)[O-])c1 | inconclusive [activator, single point] |
| Clc1ccc(-c2nnc(NCCN3CCCC3)c3ccccc23)cc1 | inconclusive [activator, single point] |

| Structure (SMILES) | Potency |
| --- | --- |
| CCOc1cc2c(cc1/C=C(/C#N)c1ccc(C(=O)O)cc1)OCO2 | inconclusive [activator, single point] |
| COc1ccc(NC(=S)NN2C(C)CCCC2C)cc1 (centres undefined) | inactive |
| CCOCCCNC(=S)NNC(=O)CCn1nc(C)c(Br)c1C | inactive |
| Cc1ccc(/C=C2/NC(=O)N(Cc3ccccc3F)C2=O)s1 | inconclusive [activator, single point] |
| CCNC(=O)COC(=O)c1cc(-c2ccc(OC)cc2)nc2ccccc12 | inactive |
| CCCCCCSc1ccc([C@H]2N[C@@](C)(C(=O)OC)[C@H]3C(=O)N(C)C(=O)[C@@H]23)cc1 | inconclusive [activator, single point] |
| COc1ccc(CN(CCNC(=O)CCCCC(=O)NCCN(Cc2ccc(OC)cc2)C(C)C)C(C)C)cc1 | inactive |
| Cc1ccc(S(=O)(=O)CCC(=O)c2cccc([N+](=O)[O-])c2)cc1 | active: 3.66 µM |
| O=C(O)CC(NC(=O)OCc1ccccc1)c1ccc(Br)cc1 (centres undefined) | inactive |
| COc1ccccc1CC(Cc1nc2ccccc2[nH]1)c1nc2ccccc2[nH]1 (centres undefined) | inconclusive [activator, single point] |
| O=C(O)C1CCc2nc(NCc3ccccc3)nc(NCc3ccccc3)c2C1 (centres undefined) | inactive |
| CC(C)(C)OC(=O)NCCCCCNC(=O)c1nc[nH]c1C(=O)NCc1ccc(CNC(=O)OC(C)(C)C)cc1 | inconclusive [activator, single point] |
| CCOc1ccc(S(=O)(=O)NCCC(=O)OCC(=O)N2CC(=O)Nc3ccccc32)cc1 | inactive |
| CCOC(=O)CNCCC(=O)c1ccc(Br)cc1 | inconclusive [activator, single point] |
| C=CCn1c(SCC(=O)c2ccc(Cl)cc2)nnc1-c1ccc2c(c1)OCO2 | inactive |
| O=C(O)c1c(-c2ccc(Cl)cc2)cn2ccccc12 | inconclusive [activator, single point] |
| COc1ccc(NC(=O)C(Cl)=C(Cl)Cl)cn1 | active: 20.6 µM |
| O=C(NCC(c1cccs1)N1CCOCC1)c1ccc(Cl)cc1 (centres undefined) | inconclusive [activator, single point] |
| Cc1ccc(NC(=O)Cn2cnc3c(NCc4ccccc4)ncnc32)cc1C | inactive |
| CNC(=O)c1c(NC(=O)c2ccc(S(=O)(=O)N3CCCc4ccccc43)cc2)sc2c1CCN(C)C2 | active: 20.6 µM |
| Cc1ccc(S(=O)(=O)N(C)C)cc1NC(=O)COC(=O)c1ccc2ccccc2n1 | inactive |
| CC1CCCC(=NNc2ccc3ccccc3n2)C1 (centres undefined) | inactive |
| Cc1cc(=O)c2ccccc2[nH]1 | inactive |
| CCN1CCN(C(=O)/C=C/c2ccc(F)cc2)CC1 | inconclusive [activator, partial curve, poor fit] |
| O=C(O)CCSc1nnc(SCC(=O)NC2CCS(=O)(=O)C2)s1 (centres undefined) | inactive |

| Structure (SMILES) | Potency |
| --- | --- |
| COC(=O)N1C/C=C\C(c2ccc(OC)cc2)N(Cc2ccc(F)cc2)C(=O)C1 (centres undefined) | inactive |
| Cc1ccc(C(=O)N(CC(C)C)c2c(N)n(Cc3ccccc3)c(=O)[nH]c2=O)o1 | inactive |
| Cc1ccc(CN2CCN(Cc3ccco3)CC2)cc1 | inactive |
| CCOC(=O)c1c(NC(=O)C2COc3ccccc3O2)sc2c1CCN(Cc1ccccc1)C2 (centres undefined) | inconclusive [activator, partial curve] |
| Cc1ccc(C2(c3noc(CN(C)CC4CCCCO4)n3)CCCC2)cc1 (centres undefined) | inconclusive [activator, single point] |
| O=C(Cc1ccccc1)Nc1ccc(S(=O)(=O)N2CCCC2)cc1 | inconclusive [activator, single point] |
| CCCCC(=O)NC(=S)NNC(=O)c1ccc(OC)cc1 | inactive |
| CCOC(=O)C1C(=O)C=C(c2ccc([N+](=O)[O-])cc2)CC1c1ccccc1 (centres undefined) | inconclusive [activator, partial curve] |
| N#CC1=C(N)C(C#N)(C#N)[C@H](c2cccnc2)[C@H]2CN(C(=O)OCc3ccccc3)CC=C12 | inconclusive [activator, single point] |
| O=c1oc2ccccc2c(O)c1/C=C1\C=Nc2ccccc21 | inconclusive [activator, single point] |
| COc1ccc(NS(=O)(=O)c2cccc(C(=O)N3CCN(S(=O)(=O)c4ccccc4)CC3)c2)cc1 | inactive |
| COc1ccc(-c2nc(NC(=O)c3ccccc3)sc2-c2ccc([N+](=O)[O-])cc2)cc1 | active: 13 µM |
| CN(Cc1ccccc1)S(=O)(=O)c1ccc(NC(=S)NC(=O)C(C)(C)C)cc1 | inactive |
| COc1ccccc1N1CCN(C2CCCN(C(=O)c3snnc3C)C2)CC1 (centres undefined) | inactive |
| COc1ccc(CCn2c(=N)c(S(=O)(=O)c3ccccc3)cc3c(=O)n4ccccc4nc32)cc1 | active: 3.66 µM |
| COc1ccccc1/C=C/C=N/NC(=O)c1ccncc1 | inactive |
| CC1CCc2ccccc2N1C(N)=Nc1ccccc1 (centres undefined) | inconclusive [activator, partial curve, poor fit] |
| COc1ccc(NC(=O)CCC(=O)OCc2ccc(Br)cc2)cc1 | inconclusive [activator, full curve, poor fit] |
| O=C1C2C3C=CC(O3)C2C(=O)N1Cc1ccncc1 (centres undefined) | inactive |
| CS/C(N)=N/N=C/c1cc(Br)cc(Br)c1O | inconclusive [activator, single point] |
| CSc1ncccc1C(=O)N1CCN(S(=O)(=O)c2cc(C)ccc2C)CC1 | inactive |
| COc1ccc2cc(CN(CC3CCCO3)C(=S)Nc3ccccc3)c(=O)[nH]c2c1 (centres undefined) | active: 13 µM |
| CC(C)c1ccc(C(=O)NCCCN(C)C)cc1 | inconclusive [activator, single point] |
| CN(C)S(=O)(=O)c1cccc(NC(=O)c2cc(-c3cccs3)nn2-c2ccccc2)c1 | inconclusive [activator, partial curve] |

Reference: PubChem BioAssay AID624296 (National Center for Advancing Translational Sciences (NCATS), 2012)
